Test results taken from PubChem BioAssay AID624417 (National Center for Advancing Translational Sciences (NCATS), 2012).
Hit rate of the full screen: of about 410,000 compounds, about 6,400 (1.6%) were called active. This list was built around the results that the source calls inconclusive (neither active nor inactive); the mix of calls is not that of the screen. Calls follow the shape of the dose curve; as a rule, active = well fitted inhibition curve with a large enough effect; inconclusive = small, poorly fitted or top-dose-only effect; inactive = no such curve, though single readings can be large or run the other way. Potencies of inconclusive entries are left out as doubtful fits.

molecular target: Glucagon-like peptide 1 receptor (Homo sapiens) (UniProt P43220); assay: qHTS of GLP-1 Receptor Inverse Agonists (Inhibition Mode); settings: HEK293 GLP-1R CRE-luciferase, luminescence, 24 h, GLP-1R form is constitutively active; activity change, negative = inhibition: at 38.3 µM (top of the series) unless noted; also: nearly all actives have a fitted effect of over 55% in size
Summary of the method: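 Using stably transfected HEK293 (constitutively active GLP-1R, cAMP-luciferase reporter), compounds were incubated 24 hr and luciferase measured by luminescence.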
% is scaled to controls: 0 for no effect and ±100 for the full control effect; potency is read from the fitted curve at half-maximal effect; tags tell the direction and shape of the fitted curve.

Chain of UniProt P43220 (P43220 whole entry, looked up): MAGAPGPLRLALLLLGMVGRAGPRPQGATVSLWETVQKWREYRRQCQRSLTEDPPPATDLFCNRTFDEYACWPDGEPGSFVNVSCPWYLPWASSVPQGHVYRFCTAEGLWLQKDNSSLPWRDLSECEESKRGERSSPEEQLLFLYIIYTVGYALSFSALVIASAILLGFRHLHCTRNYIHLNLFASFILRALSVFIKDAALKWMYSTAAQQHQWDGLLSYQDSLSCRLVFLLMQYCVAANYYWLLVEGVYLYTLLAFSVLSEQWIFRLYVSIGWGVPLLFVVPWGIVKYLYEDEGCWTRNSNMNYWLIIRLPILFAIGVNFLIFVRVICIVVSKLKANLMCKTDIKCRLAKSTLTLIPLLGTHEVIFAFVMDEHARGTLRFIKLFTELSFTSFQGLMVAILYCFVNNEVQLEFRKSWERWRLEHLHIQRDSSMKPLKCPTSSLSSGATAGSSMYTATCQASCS

| Structure (SMILES) | activity change, negative = inhibition | Potency |
| --- | --- | --- |
| Cc1ccccc1-c1noc(-c2cccnc2N2CCN(c3ccccc3)CC2)n1 | inactive: 11.2% | – |
| CCc1ccc(C(=O)c2cn(CC(=O)Nc3cc(OC)ccc3OC)c3ccc(C)cc3c2=O)cc1 | inactive: 6.6% | – |
| Cc1oc(-c2ccc(Cl)cc2)nc1CS(=O)CC(=O)NC1CCCC1 (stereo not drawn) | – | inconclusive [inhibitor, single point] |
| O=C(N/N=C/c1ccc[nH]1)c1ccccc1OCc1ccc(F)cc1 | inactive: 11.7% | – |
| COc1ccc(S(=O)(=O)Nc2ccc(S(=O)(=O)NCC3CCCO3)cc2)cc1 (stereo not drawn) | inactive: 3.02% | – |
| O=S(=O)(Nc1ccc2ccccc2c1)N1CCCCC1 | – | inconclusive [inhibitor, partial curve, poor fit] |
| Cc1ccc(N2C(=O)c3ccccc3C2Nc2ccccc2)nc1 (stereo not drawn) | – | inconclusive [inhibitor, partial curve] |
| CC1Sc2ccc(S(=O)(=O)N3CCC(C(=O)NCC(C)c4ccccc4)CC3)cc2NC1=O (stereo not drawn) | – | inconclusive [inhibitor, partial curve, poor fit] |
| CCCN(CCC)c1nc2ccccc2nc1C(C#N)C(=O)OC(C)COC (stereo not drawn) | – | active: 10 µM |
| COc1ccc(S(=O)(=O)N2CCOC23CCN(C(=O)c2ccc(Cl)cc2Cl)CC3)cc1 | – | inconclusive [inhibitor, single point] |
| COC(=O)c1[nH]c2ccccc2c1NC(=O)CN1CCN(c2cccc(Cl)c2)CC1 | – | inconclusive [inhibitor, full curve, poor fit] |
| CCCCCCCCN1C(=O)[C@H](CC(=O)N2CCOCC2)C[C@@]2(C(=O)OC)CC(C)(C)CC=C12 | – | inconclusive [inhibitor, partial curve, poor fit] |
| CCC(C)Nc1sc(S(=O)(=O)CC)nc1S(=O)(=O)c1ccc(C)cc1 (stereo not drawn) | inactive: 6.26% | – |
| CCc1nc(CN2CCN(c3ccc(C(F)(F)F)cn3)CC2)c(C)[nH]1 | – | inconclusive [inhibitor, partial curve, poor fit] |
| Cc1ccc(C)c(Nc2ncnc(N)c2[N+](=O)[O-])c1 | inactive: 29.2% | – |
| O=C(CSc1nnnn1Cc1ccccc1)Nc1cccc(F)c1 | – | inconclusive [inhibitor, single point] |
| CC(C)(CNC(=O)c1sc2cc(Cl)ccc2c1Cl)N1CCOCC1 | – | active: 10 µM |
| COc1ccccc1CN1CCc2c([nH]c3ccccc23)C1 | – | inconclusive [inhibitor, single point] |
| COC(=O)c1ccccc1NC(=O)c1ccc(COc2ccc(C)c(C)c2)o1 | – | inconclusive [inhibitor, partial curve, poor fit] |
| O=c1[nH]c2cc3c(cc2cc1CN(Cc1ccccc1)Cc1nnnn1Cc1ccco1)OCCO3 | inactive: 11.9% | – |
| CCn1c(=O)c(C(=O)NCCCO)c(O)c2ccccc21 | – | inconclusive [inhibitor, full curve, poor fit] |
| Cc1ccc2c(c1)S/C(=C/c1ccc[n+](C)c1)N2CCO | – | inconclusive [inhibitor, partial curve, poor fit] |
| Cc1cc(NCCCn2ccnc2)n2ncc(-c3ccc(Cl)cc3)c2n1 | inactive: -1.48% | – |

| Structure (SMILES) | activity change, negative = inhibition | Potency |
| --- | --- | --- |
| O=C(NN1CCOCC1)c1ccc(F)cc1 | inactive: 0.103% | – |
| CCC(C)(C)n1nnnc1C(c1ccncc1)N1CCC(Cc2ccccc2)CC1 (stereo not drawn) | – | inconclusive [inhibitor, single point] |
| CCOc1ccc(C2c3[nH]c4ccccc4c3CCN2Cc2cccn2-c2ncccn2)cc1 (stereo not drawn) | – | inconclusive [inhibitor, partial curve, poor fit] |
| COc1cccc(C(=O)Nc2cccc(NC(=O)c3ccc(Cl)cc3Cl)c2)c1 | – | inconclusive [inhibitor, single point] |
| COc1ccc(Oc2cn[nH]c2-c2ccc(OCC(=O)NN)cc2O)cc1 | – | inconclusive [inhibitor, partial curve, poor fit] |
| CC(NC(=O)c1cccc(Cl)c1)C1CC2CCC1C2 (stereo not drawn) | – | inconclusive [inhibitor, partial curve, poor fit] |
| O=S(=O)(NCc1c(Cl)cccc1Oc1ccccc1)c1ccccc1 | – | active: 10 µM |
| COCC(C)n1c(C)cc(C(=O)COC(=O)c2cccn2C)c1C (stereo not drawn) | – | inconclusive [inhibitor, partial curve, poor fit] |
| Cc1cccc(-n2c(-c3ccccc3)c[nH]c2=S)c1C | – | inconclusive [inhibitor, partial curve, poor fit] |
| O=S(=O)(c1ccccc1)N1CCN(c2cccc(Cl)c2)CC1 | – | inconclusive [inhibitor, partial curve, poor fit] |
| Cc1cccc(N=C2NC(=O)/C(=C/c3cccs3)S2)c1 | inactive: 43.7% | – |
| Cc1ccc(Nc2nc(N)nc(CN3CCN(Cc4ccc5c(c4)OCO5)CC3)n2)cc1 | – | inconclusive [inhibitor, partial curve, poor fit] |
| CCc1ccc(OCCNC(=O)c2ccccc2SCc2ccc(F)cc2)cc1 | – | active: 8.91 µM |
| Cc1ccc(NS(=O)(=O)N2CCCCC2)cc1 | – | inconclusive [inhibitor, full curve, poor fit] |
| NC(Cc1ccc(Cl)cc1)c1csc(Nc2ccc(S(N)(=O)=O)cc2)n1 (stereo not drawn) | – | inconclusive [inhibitor, partial curve, poor fit] |
| CC(C)CCNC(=O)C(c1cccnc1)N(Cc1ccccc1)C(=O)Cn1nnc2ccccc21 (stereo not drawn) | inactive: -10% | – |
| CC1(C)CC(=O)C2=C(C1)OC1=C(C(=O)CC(C)(C)C1)C2c1cccc([N+](=O)[O-])c1 | inactive: -3.99% | – |
| CC#CC(=O)NCC1(N(C)Cc2ccccc2)Cc2ccccc2C1 | – | inconclusive [inhibitor, partial curve, poor fit] |
| Cc1nn(C)c2c1c(-c1ccccc1)cc(=O)n2Cc1ccccc1Cl | inactive: 10.9% | – |
| O=S(=O)(NCCSCc1ccc(Cl)cc1Cl)c1ccc2c(c1)OCCO2 | – | inconclusive [inhibitor, single point] |
| Cc1cccc(CN2CCCC(C(=O)c3ccc4c5c(cccc35)CC4)C2)n1 (stereo not drawn) | – | inconclusive [inhibitor, single point] |
| Cc1ccc(CN(C(=O)COc2ccc(Cl)cc2)c2ccccn2)o1 | – | inconclusive [inhibitor, single point] |
| O=C(NCc1ccccc1)c1onc(CSc2ccc(Cl)cc2)c1C(=O)NCC1CC1 | – | inconclusive [inhibitor, single point] |

| Structure (SMILES) | activity change, negative = inhibition | Potency |
| --- | --- | --- |
| O=[N+]([O-])c1cc(Br)cc(C=Nc2ccc3c(c2)OCO3)c1O | inactive: -6.65% | – |
| CCOC(=O)c1ccc(NC(=O)CC2Sc3ccc(C(F)(F)F)cc3NC2=O)cc1 (stereo not drawn) | inactive: -9.51% | – |
| CC(=O)Nc1cccc(NC(=O)Cc2nc(-c3ccccc3)sc2-c2ccc(C)cc2)c1 | – | inconclusive [inhibitor, single point] |
| O=C(c1ccc(S(=O)(=O)Cc2ccccc2Cl)c([N+](=O)[O-])c1)N1CCN(c2ccccn2)CC1 | – | active: 10 µM |
| FC(F)(F)c1cc(CCN2C(=S)NC[C@@H]2CC2CCCCC2)cc(C(F)(F)F)c1 | inactive: 11.1% | – |
| Cc1csc(NC(=O)/C=C/c2ccc3c(c2)OCO3)n1 | – | inconclusive [inhibitor, full curve, poor fit] |
| COc1cc(OC)c(C(=O)NC2CCCCCC2)cc1OC | – | inconclusive [inhibitor, single point] |
| COc1ccc(-c2nc(CCNC(=O)c3cccs3)cs2)cc1 | – | inconclusive [inhibitor, partial curve, poor fit] |
| O=C(O)C1C2CCC(C2)C1C(=O)Nc1cccc([N+](=O)[O-])c1 (stereo not drawn) | inactive: 3.46% | – |
| CN1C2CCC1CC(NC(=O)CSc1ccc(C(C)(C)C)cc1)C2 (stereo not drawn) | – | inconclusive [inhibitor, partial curve, poor fit] |
| C=CC(=O)N(CCC)C(c1ccccc1)c1ccccc1OC (stereo not drawn) | – | inconclusive [inhibitor, partial curve, poor fit] |
| CS(=O)(=O)N(CC(=O)Nc1ccc(Br)cc1)c1ccccc1Br | – | inconclusive [inhibitor, single point] |
| Cc1cccc(C)c1N=C1NN=C(c2ccccc2F)CS1 | – | inconclusive [inhibitor, partial curve, poor fit] |
| Cc1ccccc1Cn1cc(CCC(=O)N2CCOCC2)c2ccccc21 | – | inconclusive [inhibitor, single point] |
| CCOC(=O)C1=CN(Cc2cccc(F)c2)S(=O)(=O)N(C)C1c1cccc(OC)c1 (stereo not drawn) | – | inconclusive [inhibitor, single point] |
| Cc1ccc(CNc2ccc([N+](=O)[O-])cc2C(N)=O)cc1 | inactive: 44.9% | – |
| O=[N+]([O-])c1ccc(N2CCN(c3ccc(O)cc3)CC2)cn1 | – | inconclusive [inhibitor, partial curve] |
| COc1ccc(C(=O)Cn2c(NCCO)nc3ccccc32)cc1OC | inactive: 5.82% | – |
| O=C(NCc1ccc2c(c1)OCO2)c1ccc(Cl)c(S(=O)(=O)N2CCOCC2)c1 | inactive: 0.151% | – |
| CCc1ccccc1NC(=O)C(C)n1nc([N+](=O)[O-])c(Br)c1C (stereo not drawn) | – | inconclusive [inhibitor, partial curve] |
| Cc1nn(-c2ccccc2)c(C)c1/C=N/NC(=O)CSc1nnc(SCc2ccccc2Cl)s1 | – | inconclusive [inhibitor, single point] |
| O=C(N/N=C/c1cccnc1)c1cc2ccccc2cc1O | – | inconclusive [inhibitor, single point] |
